Results from PubChem BioAssay (NCI).
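48-hour exposure; five concentrations; linearly interpolated endpoints. TGI marks complete inhibition of growth.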 Certain results were filed several times, with different values. The other results are left out here. The source may hold further records. For some assays here: A record mostly stands for its own series of concentrations, which the source does not state; a value can be the end of its range. For some assays here: The records of an entry are repeats in other runs, samples, wells, individuals or studies. Marks in square brackets tell the records apart. A, B and so on number the origins entry by entry.

Experiments:
Experiment in all cases: DTP human tumour cell line panel, 48 h
786-0 renal = tested on: 786-0 renal
ACHN renal = tested on: ACHN renal
BT-549 breast = tested on: BT-549 breast
CAKI-1 renal = tested on: CAKI-1 renal
CCRF-CEM leukemia = tested on: CCRF-CEM leukemia
EKVX NSCLC = tested on: EKVX NSCLC
HCT-116 colon = tested on: HCT-116 colon
HOP-62 NSCLC = tested on: HOP-62 NSCLC
HT29 colon = tested on: HT29 colon
K-562 leukemia = tested on: K-562 leukemia
LOX IMVI melanoma = tested on: LOX IMVI melanoma
MCF7 breast = tested on: MCF7 breast
NCI-H23 lung = tested on: NCI-H23 lung
OVCAR-4 ovarian = tested on: OVCAR-4 ovarian
PC-3 prostate = tested on: PC-3 prostate
SK-OV-3 ovarian = tested on: SK-OV-3 ovarian
SN12C renal = tested on: SN12C renal
SNB-19 CNS = tested on: SNB-19 CNS
T-47D breast = tested on: T-47D breast
TK-10 renal = tested on: TK-10 renal
U251 CNS = tested on: U251 CNS
SR leukemia = tested on: SR leukemia
OVCAR-5 ovarian = tested on: OVCAR-5 ovarian
SF-295 CNS = tested on: SF-295 CNS

For `N#Cc1nc2c(S(=O)(=O)c3ccc(Cl)cc3)c(N)n(Nc3cccc(Cl)c3)c2nc1C#N`, the TGI (786-0 renal) was 154 nM and 3.35 µM, the TGI (ACHN renal) was 172 nM and > 100 µM and the TGI (BT-549 breast) was 735 nM and 68.3 nM. The TGI (CAKI-1 renal) was 212 nM and > 100 µM, the TGI (CCRF-CEM leukemia) was 166 nM and 13.4 nM and the TGI (EKVX NSCLC) was 279 nM and > 100 µM. For the same compound, the TGI (HCT-116 colon) was 125 nM and > 100 µM, the TGI (HOP-62 NSCLC) was 245 nM and > 100 µM and the TGI (HT29 colon) was 139 nM and > 100 µM. The TGI (K-562 leukemia) was 200 nM and > 100 µM, the TGI (LOX IMVI melanoma) was 157 nM and > 100 µM and the TGI (MCF7 breast) was 192 nM and > 100 µM. The TGI (NCI-H23 lung) was 188 nM and > 100 µM, the TGI (OVCAR-4 ovarian) was 66.2 nM and > 100 µM and the TGI (PC-3 prostate) was 14.8 nM and > 100 µM. For the same compound, the TGI (SK-OV-3 ovarian) was 333 nM and > 100 µM, the TGI (SN12C renal) was 204 nM and > 100 µM and the TGI (SNB-19 CNS) was 310 nM and > 100 µM. The TGI (T-47D breast) was 466 nM and > 100 µM, the TGI (TK-10 renal) was 95.7 nM and 81.6 µM and the TGI (U251 CNS) was 104 nM and > 100 µM.
With `Cc1cc(O)c2c(c1)C(=O)C=CC2=O` the TGI (K-562 leukemia) was 1.47 µM [sample A, 1 test] and > 100 µM [sample B, mean of 2 tests] and the TGI (SR leukemia) was 3.69 µM [sample A, mean of 2 tests] and > 100 µM [sample B, 1 test].
With `N#CC(C(=O)C(=O)Nc1c(Cl)cccc1Cl)c1ccccc1` (stereo unspecified) the TGI (LOX IMVI melanoma) was 1.41 µM and > 100 µM, the TGI (OVCAR-5 ovarian) was 2.11 µM and > 100 µM and the TGI (SF-295 CNS) was 1.17 µM and > 100 µM.
